# Source: the supplement of paper PMC8728848
# The other results are listed elsewhere or left out.
# How the values were obtained:
# Experiment in all cases: glycan array binding signal (z-score within array); higher = stronger binding
# Details in all cases: glycan notation: IUPAC condensed, linker removed
# [1] = target: Neu5Ac(a2-3)[GalNAc(b1-4)]Gal(b1-4)Glc
# How it was run: (§1)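 From the Consortium for Functional Glycomics database, 3228 arrays were curated, keeping only those whose protein sequence was available. Binding is given as a within-array Z-score averaged across arrays sharing a protein sequence and across linkers. Negative Z-scores can be read as non-binding.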
# [2] = target: Neu5Ac(a2-3)[GalNAc(b1-4)]Gal(b1-4)GlcNAc
# How it was run: as §1
# [3] = target: Neu5Ac(a2-3)[GalNAc(b1-4)]Gal(b1-4)GlcNAc(b1-3)GalNAc
# How it was run: as §1
# [4] = target: Neu5Ac(a2-3)[Neu5Ac(a2-6)]GalNAc
# How it was run: as §1
# [5] = target: Neu5Ac(a2-6)Gal
# How it was run: as §1
# [6] = target: Neu5Ac(a2-6)Gal(b1-3)GlcNAc(b1-3)[Gal(b1-4)GlcNAc(b1-6)]Gal(b1-4)Glc
# How it was run: as §1
# [7] = target: Neu5Ac(a2-6)Gal(b1-4)Glc
# How it was run: as §1
# [8] = target: Neu5Ac(a2-6)Gal(b1-4)GlcNAc
# How it was run: as §1
# [9] = target: Neu5Ac(a2-6)Gal(b1-4)GlcNAc(b1-2)Man
# How it was run: as §1
# [10] = target: Neu5Ac(a2-6)Gal(b1-4)GlcNAc(b1-2)Man(a1-3)Man(b1-4)GlcNAc(b1-4)GlcNAc
# How it was run: as §1
# [11] = target: Neu5Ac(a2-6)Gal(b1-4)GlcNAc(b1-2)Man(a1-3)[Gal(b1-4)GlcNAc(b1-2)Man(a1-6)]Man(b1-4)GlcNAc(b1-4)GlcNAc
# How it was run: as §1
# [12] = target: Neu5Ac(a2-6)Gal(b1-4)GlcNAc(b1-2)Man(a1-3)[GlcNAc(b1-2)Man(a1-6)]Man(b1-4)GlcNAc(b1-4)GlcNAc
# How it was run: as §1
# [13] = target: Neu5Ac(a2-6)Gal(b1-4)GlcNAc(b1-2)Man(a1-3)[GlcNAc(b1-4)][Neu5Ac(a2-6)Gal(b1-4)GlcNAc(b1-2)Man(a1-6)]Man(b1-4)GlcNAc(b1-4)GlcNAc
# How it was run: as §1
# [14] = target: Neu5Ac(a2-6)Gal(b1-4)GlcNAc(b1-2)Man(a1-3)[Man(a1-6)]Man(b1-4)GlcNAc(b1-4)GlcNAc
# How it was run: as §1
# [15] = target: Neu5Ac(a2-6)Gal(b1-4)GlcNAc(b1-2)Man(a1-3)[Neu5Ac(a2-3)Gal(b1-4)GlcNAc(b1-2)Man(a1-6)]Man(b1-4)GlcNAc(b1-4)GlcNAc
# How it was run: as §1
# [16] = target: Neu5Ac(a2-6)Gal(b1-4)GlcNAc(b1-2)Man(a1-3)[Neu5Ac(a2-6)Gal(b1-4)GlcNAc(b1-2)Man(a1-6)]Man(b1-4)GlcNAc(b1-4)GlcNAc
# How it was run: as §1
# [17] = target: Neu5Ac(a2-6)Gal(b1-4)GlcNAc(b1-2)Man(a1-3)[Neu5Ac(a2-6)Gal(b1-4)GlcNAc(b1-2)Man(a1-6)]Man(b1-4)GlcNAc(b1-4)[Fuc(a1-6)]GlcNAc
# How it was run: as §1
# [18] = target: Neu5Ac(a2-6)Gal(b1-4)GlcNAc(b1-2)Man(a1-6)Man(b1-4)GlcNAc(b1-4)GlcNAc
# How it was run: as §1
# [19] = target: Neu5Ac(a2-6)Gal(b1-4)GlcNAc(b1-2)Man(a1-6)[Gal(b1-4)GlcNAc(b1-2)Man(a1-3)]Man(b1-4)GlcNAc(b1-4)GlcNAc
# How it was run: as §1
# [20] = target: Neu5Ac(a2-6)Gal(b1-4)GlcNAc(b1-2)Man(a1-6)[GlcNAc(b1-2)Man(a1-3)]Man(b1-4)GlcNAc(b1-4)GlcNAc
# How it was run: as §1
# [21] = target: Neu5Ac(a2-6)Gal(b1-4)GlcNAc(b1-2)Man(a1-6)[Man(a1-3)]Man(b1-4)GlcNAc(b1-4)GlcNAc
# How it was run: as §1
# [22] = target: Neu5Ac(a2-6)Gal(b1-4)GlcNAc(b1-2)[Neu5Ac(a2-6)Gal(b1-4)GlcNAc(b1-4)]Man(a1-3)[GlcNAc(b1-4)][Neu5Ac(a2-6)Gal(b1-4)GlcNAc(b1-2)[Neu5Ac(a2-6)Gal(b1-4)GlcNAc(b1-6)]Man(a1-6)]Man(b1-4)GlcNAc(b1-4)GlcNAc
# How it was run: as §1
# [23] = target: Neu5Ac(a2-6)Gal(b1-4)GlcNAc(b1-2)[Neu5Ac(a2-6)Gal(b1-4)GlcNAc(b1-4)]Man(a1-3)[GlcNAc(b1-4)][Neu5Ac(a2-6)Gal(b1-4)GlcNAc(b1-4)Man(a1-6)]Man(b1-4)GlcNAc(b1-4)GlcNAc
# How it was run: as §1
# [24] = target: Neu5Ac(a2-6)Gal(b1-4)GlcNAc(b1-2)[Neu5Ac(a2-6)Gal(b1-4)GlcNAc(b1-6)]Man(a1-6)[Neu5Ac(a2-6)Gal(b1-4)GlcNAc(b1-2)Man(a1-3)][GlcNAc(b1-4)]Man(b1-4)GlcNAc(b1-4)GlcNAc
# How it was run: as §1
# [25] = target: Neu5Ac(a2-6)Gal(b1-4)GlcNAc(b1-3)Gal(b1-3)GlcNAc
# How it was run: as §1
# [26] = target: Neu5Ac(a2-6)Gal(b1-4)GlcNAc(b1-3)Gal(b1-4)GlcNAc
# How it was run: as §1
# [27] = target: Neu5Ac(a2-6)Gal(b1-4)GlcNAc(b1-3)Gal(b1-4)GlcNAc(b1-2)Man(a1-3)[Neu5Ac(a2-6)Gal(b1-4)GlcNAc(b1-3)Gal(b1-4)GlcNAc(b1-2)Man(a1-6)]GalNAc
# How it was run: as §1
# [28] = target: Neu5Ac(a2-6)Gal(b1-4)GlcNAc(b1-3)Gal(b1-4)GlcNAc(b1-3)Gal(b1-4)GlcNAc
# How it was run: as §1
# [29] = target: Neu5Ac(a2-6)Gal(b1-4)GlcNAc(b1-3)Gal(b1-4)GlcNAc(b1-3)Gal(b1-4)GlcNAc(b1-2)Man(a1-3)[Neu5Ac(a2-6)Gal(b1-4)GlcNAc(b1-3)Gal(b1-4)GlcNAc(b1-3)Gal(b1-4)GlcNAc(b1-2)Man(a1-6)]GalNAc
# How it was run: as §1
# [30] = target: Neu5Ac(a2-6)Gal(b1-4)GlcNAc(b1-3)Gal(b1-4)GlcNAc(b1-3)GalNAc
# How it was run: as §1
# [31] = target: Neu5Ac(a2-6)Gal(b1-4)GlcNAc(b1-3)Gal(b1-4)GlcNAc(b1-3)[Neu5Ac(a2-6)Gal(b1-4)GlcNAc(b1-3)Gal(b1-4)GlcNAc(b1-6)]GalNAc
# How it was run: as §1
# [32] = target: Neu5Ac(a2-6)Gal(b1-4)GlcNAc(b1-3)Gal(b1-4)GlcNAc(b1-6)[Gal(b1-3)]GalNAc
# How it was run: as §1
# [33] = target: Neu5Ac(a2-6)Gal(b1-4)GlcNAc(b1-3)Gal(b1-4)[Fuc(a1-3)]GlcNAc(b1-3)Gal(b1-4)[Fuc(a1-3)]GlcNAc
# How it was run: as §1
# [34] = target: Neu5Ac(a2-6)Gal(b1-4)GlcNAc(b1-3)GalNAc
# How it was run: as §1
# [35] = target: Neu5Ac(a2-6)Gal(b1-4)GlcNAc(b1-3)[Neu5Ac(a2-6)Gal(b1-4)GlcNAc(b1-6)]GalNAc
# How it was run: as §1
# [36] = target: Neu5Ac(a2-6)Gal(b1-4)GlcNAc(b1-6)GalNAc
# How it was run: as §1
# [37] = target: Neu5Ac(a2-6)Gal(b1-4)GlcNAc(b1-6)[Gal(b1-3)GlcNAc(b1-3)]Gal(b1-4)Glc
# How it was run: as §1
# [38] = target: Neu5Ac(a2-6)Gal(b1-4)GlcNAc(b1-6)[Gal(b1-3)]GalNAc
# How it was run: as §1
binder,measurement,setting,value
"CSA (Cytisus scoparius), P29257 (protein) SEELSFSFTKFKTDQKNLILQRDALITPTGKLQLTTVENGKPAAYSLGRALYSTPIHIWDKSTGDEASFATFFSFVISDAPNPSTAATDGLAFFLAPADTQPQSAGGYLGLFEKDSSYNSSNQIVAVEFDTYYNSAWDPQTNPHIGIDVNTIKSKKVSSWGFKNGNVATVLITYQPSSKSLVASLVYPSGQTSDKTSYIISANVDLKATVPEWVRIGFSATTGQTDNYIETHDILSWSFKSKLPATKN",glycan array binding signal (z-score),[1],0.208
same,glycan array binding signal (z-score),[2],0.338
same,glycan array binding signal (z-score),[3],0.263
same,glycan array binding signal (z-score),[4],-0.224
same,glycan array binding signal (z-score),[5],-0.102
same,glycan array binding signal (z-score),[6],-0.199
same,glycan array binding signal (z-score),[7],-0.154
same,glycan array binding signal (z-score),[8],-0.184
same,glycan array binding signal (z-score),[9],-0.22
same,glycan array binding signal (z-score),[10],-0.213
same,glycan array binding signal (z-score),[11],-0.204
same,glycan array binding signal (z-score),[12],-0.22
same,glycan array binding signal (z-score),[13],-0.228
same,glycan array binding signal (z-score),[14],-0.185
same,glycan array binding signal (z-score),[15],-0.205
same,glycan array binding signal (z-score),[16],-0.171
same,glycan array binding signal (z-score),[17],0.079
same,glycan array binding signal (z-score),[18],-0.128
same,glycan array binding signal (z-score),[19],-0.157
same,glycan array binding signal (z-score),[20],-0.138
same,glycan array binding signal (z-score),[21],-0.236
same,glycan array binding signal (z-score),[22],-0.171
same,glycan array binding signal (z-score),[23],-0.261
same,glycan array binding signal (z-score),[24],-0.195
same,glycan array binding signal (z-score),[25],-0.218
same,glycan array binding signal (z-score),[26],-0.189
same,glycan array binding signal (z-score),[27],-0.096
same,glycan array binding signal (z-score),[28],-0.181
same,glycan array binding signal (z-score),[29],0.296
same,glycan array binding signal (z-score),[30],-0.243
same,glycan array binding signal (z-score),[31],0.391
same,glycan array binding signal (z-score),[32],-0.036
same,glycan array binding signal (z-score),[33],-0.181
same,glycan array binding signal (z-score),[34],-0.174
same,glycan array binding signal (z-score),[35],-0.172
same,glycan array binding signal (z-score),[36],-0.202
same,glycan array binding signal (z-score),[37],-0.252
same,glycan array binding signal (z-score),[38],-0.04
